In all, about 310,000 compounds went through this assay and about 14,000 (4.5%) showed an effect of 50% or more. The effect is printed as a negative number. Some of the results follow.
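Note: peak tail current of the secondary pulse compared with the same well before compound.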

The target in the assay is human ether-à-go-go-related gene (hERG) potassium channel (human, UniProt Q12809). Description: primary screen, population patch clamp on CHO cells stably expressing hERG.
Chain of human ether-à-go-go-related gene (hERG) potassium channel (Q12809 whole entry, looked up): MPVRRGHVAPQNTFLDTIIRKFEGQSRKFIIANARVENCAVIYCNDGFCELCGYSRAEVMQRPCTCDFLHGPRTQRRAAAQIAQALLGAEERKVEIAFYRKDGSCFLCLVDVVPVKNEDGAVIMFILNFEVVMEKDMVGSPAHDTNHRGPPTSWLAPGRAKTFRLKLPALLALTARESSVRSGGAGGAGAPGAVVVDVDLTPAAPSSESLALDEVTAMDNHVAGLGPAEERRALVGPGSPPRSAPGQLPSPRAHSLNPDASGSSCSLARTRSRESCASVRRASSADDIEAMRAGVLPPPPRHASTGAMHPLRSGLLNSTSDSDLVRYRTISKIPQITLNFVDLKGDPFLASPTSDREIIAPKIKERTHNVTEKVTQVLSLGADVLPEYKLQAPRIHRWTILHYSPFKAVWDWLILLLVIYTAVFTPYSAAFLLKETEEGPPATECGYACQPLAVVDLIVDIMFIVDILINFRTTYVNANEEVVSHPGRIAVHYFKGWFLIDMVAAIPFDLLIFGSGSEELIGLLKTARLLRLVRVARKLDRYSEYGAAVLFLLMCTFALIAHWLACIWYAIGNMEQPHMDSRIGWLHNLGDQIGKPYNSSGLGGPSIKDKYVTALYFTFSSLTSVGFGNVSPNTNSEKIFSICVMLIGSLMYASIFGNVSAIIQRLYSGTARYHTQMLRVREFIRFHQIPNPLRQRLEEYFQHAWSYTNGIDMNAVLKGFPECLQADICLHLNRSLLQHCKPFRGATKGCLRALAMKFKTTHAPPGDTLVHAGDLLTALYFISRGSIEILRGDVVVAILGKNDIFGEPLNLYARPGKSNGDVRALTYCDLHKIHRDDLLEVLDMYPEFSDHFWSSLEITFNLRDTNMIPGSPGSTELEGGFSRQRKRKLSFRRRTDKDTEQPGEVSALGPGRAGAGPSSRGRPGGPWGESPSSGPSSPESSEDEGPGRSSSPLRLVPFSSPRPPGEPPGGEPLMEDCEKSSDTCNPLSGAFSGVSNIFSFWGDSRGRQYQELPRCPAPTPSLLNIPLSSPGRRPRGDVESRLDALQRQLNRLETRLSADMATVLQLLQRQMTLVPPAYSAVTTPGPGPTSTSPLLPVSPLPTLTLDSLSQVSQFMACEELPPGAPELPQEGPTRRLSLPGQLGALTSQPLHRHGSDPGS
Consider `Nc1cc(C(=O)N2CCCC2)cc(C(=O)N2CCCC2)c1`, for which the “hERG current change (%, negative = inhibition) at 10uM” value is given as 11.9%. Next, `N=c1c(C(=O)NCC2CCCO2)cc2c(=O)n3ccccc3nc2n1C1CCCCC1` (stereo not shown): -77.3%. Next, `CC(=O)c1c(C)nc(-c2ccc(OCC(=O)Nc3ccc(F)cc3)cc2)n1O`: -5.61%. To `CN(C)C(=O)COC(=O)c1cccc(S(=O)(=O)Nc2ccc(OCc3ccccc3)cc2)c1` belongs 7.14%; to `C=CCSc1nc2[nH]ncc2c(=O)[nH]1`, 10.6%. For the molecule `COc1ccc(NC(=O)CN(C)CC(=O)Nc2sc3c(c2C#N)CCC3)cc1`, the “hERG current change (%, negative = inhibition) at 10uM” value is recorded as 0.0459%. To `COc1ccccc1N1CC(O)=C(c2nc3ccccc3c(=O)[nH]2)C1=N` belongs -29.9%. Regarding `O=C(Nc1ccccc1)c1cccnc1N1CCCC1`, the “hERG current change (%, negative = inhibition) at 10uM” value is -13.5%. Next, `CCN(CCCNC(=O)C1CCC(=O)N1C(C)C)c1cccc(C)c1` (stereo not shown): -13.5%. For `CCCN(CCC)C(=O)CP(=O)(c1ccccc1)c1ccccc1`, the “hERG current change (%, negative = inhibition) at 10uM” value is -6.96%. For `COCCCN1C(=O)C(=O)/C(=C(/O)c2ccc(OC)cc2)C1c1ccc(O)c(OC)c1` (stereo not shown), the “hERG current change (%, negative = inhibition) at 10uM” value is recorded as 19.2%. To `Cc1ccc(S(=O)(=O)N2CCN(c3c([N+](=O)[O-])cc(C(F)(F)F)cc3[N+](=O)[O-])CC2)cc1` belongs 1.54%; to `COc1ccc(Nc2cc(C)nc3ccc(OC)cc23)cc1`, -52.3%.

As to `COc1ccc(-c2nn(-c3ccccc3)cc2/C=N/NC(=O)c2ccc(Br)o2)cc1`, the “hERG current change (%, negative = inhibition) at 10uM” value is reported as -0.138%. To `C=CCn1c(=S)[nH]c2cc(C(=O)Nc3ccc(OC)c(OC)c3)ccc2c1=O` belongs 19.7%; to `N#Cc1c(NC(=O)/C=C/C(=O)O)sc2c1CCN(Cc1ccccc1)C2`, 6.58%; to `Nc1n[nH]c(N)c1N=Nc1ccc(Cl)cc1Cl`, 19.1%. To `Cc1ccc(S(=O)(=O)N2CCOCC2)cc1C(=O)NC1CCCCC1` belongs 6.61%; to `N#Cc1ccc(-c2ccc(F)cc2)nc1Oc1ccccc1`, 1.49%; to `O=[N+]([O-])c1ccc2c(c1)nc1n2CCSC1`, -19.2%. Regarding `COC(=O)[C@H](Cc1c[nH]c2ccccc12)NC(=O)NCc1ccc(OC)c(OC)c1`, the “hERG current change (%, negative = inhibition) at 10uM” value amounted to 8.51%.

`CN(C)c1ccc(/C=N/NC(=O)C(=O)/C=C2\NC3(CCCC3)Cc3ccccc32)cc1`: the “hERG current change (%, negative = inhibition) at 10uM” value came out at 20.3%.

On to `Nc1ncc2[nH]cnc2n1.O=[N+]([O-])O`, for which the “hERG current change (%, negative = inhibition) at 10uM” value came to 9.53%.

In the case of `CCN(C(=O)c1sc(N)c(C#N)c1C)C1CCCCC1`, the “hERG current change (%, negative = inhibition) at 10uM” value is 9.21%. Next, `Cc1cc(OCC(=O)N(Cc2ccco2)c2c(N)n(Cc3ccccc3)c(=O)[nH]c2=O)ccc1Cl`: 10.8%; `CC(=O)Nc1ccc(NC(=O)c2cccc(S(=O)(=O)N(C)C3CCCCC3)c2)cc1`: 6.97%.

As for `COc1ccc([N+](=O)[O-])cc1N(CC(O)CN(C)C)S(=O)(=O)c1ccc(C)cc1` (stereo not shown), the “hERG current change (%, negative = inhibition) at 10uM” value is reported as -41.8%. To `O=C(c1ccc(COc2ccccc2Br)cc1)N1CCCCC1` belongs -8.54%; to `O=C(O)C(F)(F)F.O=C1C(Cc2ccccc2)Nc2ncnc(N3CCCCC3)c2N1Cc1ccc(Cl)cc1` (stereo not shown), -8.17%. Next, `COc1ccc(N(CC(=O)Nc2ccccc2C(=O)N2CCCC2)S(C)(=O)=O)cc1`: 27.7%. Next, `COc1cc(N)c(Br)cc1C(=O)O`: 11.8%; `CC(=O)Nc1ccc(S(=O)(=O)NCC2CCC(C(=O)N3CC(C)CC(C)C3)CC2)cc1` (stereo not shown): 5.39%; `O=c1c2ccccc2nc(/C=C/c2ccco2)n1-c1ccccc1O`: -13.3%. For the molecule `Cc1ccc(NC(=S)N(Cc2ccccc2)Cc2cccs2)c(C)c1`, the “hERG current change (%, negative = inhibition) at 10uM” value came out at 10.3%. To `CN1CCN(C(=O)/C(=C\c2cccs2)NC(=O)c2ccccc2)CC1` belongs -75.3%; to `NC(=O)NOCc1c(F)cccc1Cl`, 19.3%. To `Cn1c(CNC(=O)CNC(=O)Cc2ccc(F)cc2)cc(=O)n(C)c1=O` belongs 21.8%; to `CCCCOc1ccc(C(=O)NCC(=O)NCCOc2ccc(C)cc2)cc1`, 6.35%. As to `Cc1cc(C)n(CC(=O)c2ccc(Cl)cc2)n1`, the “hERG current change (%, negative = inhibition) at 10uM” value is 17.2%.

Consider `COc1ccc(C(=O)Nc2ccccc2C(=O)NC(Cc2ccc(O)cc2)C(=O)NNC(=O)c2ccncc2)cc1` (stereo not shown), for which the “hERG current change (%, negative = inhibition) at 10uM” value worked out at 7.99%. In the case of `CCc1nc(SCc2ccc(Br)cc2)n[nH]1`, the “hERG current change (%, negative = inhibition) at 10uM” value is recorded as 10.2%.

Take `Cc1ccsc1C(=O)Nc1ccc(C(=O)O)cc1`: the “hERG current change (%, negative = inhibition) at 10uM” value was 0.621%.

Regarding `O=C(COc1coc(CN2CCc3ccccc3C2)cc1=O)Nc1cccc([N+](=O)[O-])c1`, the “hERG current change (%, negative = inhibition) at 10uM” value is 2.89%. As to `CC[C@H]1OC(=O)[C@H](C)[C@@H](O[C@H]2C[C@@](C)(OC)[C@@H](O)[C@H](C)O2)[C@H](C)[C@@H](O[C@@H]2O[C@H](C)C[C@H](N(C)C)[C@H]2O)[C@](C)(O)C[C@@H](C)CN(C)[C@H](C)[C@@H](O)[C@]1(C)O`, the “hERG current change (%, negative = inhibition) at 10uM” value is listed as 1.55%. Next, `Cc1nc2ccccc2c(=O)n1NC(=O)c1ccc(Cl)c([N+](=O)[O-])c1`: -6.86%; `CC(=O)OC(C(=O)NC1CCCCC1)c1ccc(Cl)cc1` (stereo not shown): 19.4%; `O=C(CCc1nc2ccccc2c(=O)[nH]1)Nc1cc(C(F)(F)F)ccc1N1CCOCC1`: -35.3%. To `COc1ccc(C2C(C(=O)NCC3CCCO3)CCC(=O)N2c2ccc3c(c2)OCO3)cc1` (stereo not shown) belongs -3.58%. To `Nc1ccc(Cc2nc3c(ccc4ccccc43)[nH]2)cc1` belongs -7.64%. For the molecule `CCOC(=O)CNC(=O)N1CCc2ccc(NC(=O)c3ccccc3Cl)cc2C1`, the “hERG current change (%, negative = inhibition) at 10uM” value is listed as -0.885%. To `CCCn1c(SCC(N)=O)nnc1C(C)C` belongs 14.7%; to `CCOC(=O)C1CCN(Cc2ccccc2C)CC1`, 0.665%; to `O=C(COC(=O)c1cccc(Br)c1)NCCc1ccc(F)cc1`, -0.0664%. Next, `Cl.OC(COCCC12CC3CC(CC(C3)C1)C2)CN1CCCCC1` (stereo not shown): -40.1%; `Brc1ccc(-c2csc(/N=C/N3CCCC3)n2)cc1`: -17.4%; `C/C(CCc1ccc2c(c1)OCO2)=N\NC(=O)c1ccccc1Br`: -41.4%. To `COc1cc([N+](=O)[O-])ccc1NC(=O)Oc1ccc(NC(C)=O)cc1` belongs 2.32%; to `COCCn1c(SCC(=O)Nc2ccccc2OC)nc2c([nH]c3ccccc32)c1=O`, -6.52%.

Turning to `CCOC(=O)CCCNC(=O)CCNC(=O)c1ccc(OCCC(C)C)cc1`, the “hERG current change (%, negative = inhibition) at 10uM” value is on record as 5.87%. Regarding `Nc1nc(Oc2ccc(F)cc2)c(Br)c(=O)[nH]1`, the “hERG current change (%, negative = inhibition) at 10uM” value is 7.49%.

`CC(=O)[C@@H]1[C@@H](C(=O)c2ccccc2)[C@]2(C(=O)Nc3ccccc32)[C@H]2C=Cc3cc(F)ccc3N12`: the “hERG current change (%, negative = inhibition) at 10uM” value worked out at 3.37%. `O=C(CNC(=O)c1ccccc1Br)N/N=C/c1cccnc1`: the “hERG current change (%, negative = inhibition) at 10uM” value was found to be 13.4%. `CCOC(=O)c1c(C)[nH]c(C)c1C(=O)COC(=O)/C=C/c1cccc(Cl)c1`: the “hERG current change (%, negative = inhibition) at 10uM” value turned out to be 6.76%. To `Cc1cc(NC(=O)c2cc(-c3ccccc3)on2)n(-c2ccccc2)n1` belongs 3.96%; to `COc1cnc(-c2ccccn2)nc1Oc1cccc(Cl)c1`, -3.55%; to `O=C(CN1C(=O)COc2ccccc21)N1CCN(C2CCCCC2)CC1`, 1.4%. Turning to `O=C(Nc1cc(C(F)(F)F)ccc1N1CCOCC1)c1ccc[n+]([O-])c1`, the “hERG current change (%, negative = inhibition) at 10uM” value was 5.15%. Next, `COc1ccc(Cc2n[nH]c(=S)n2-c2ccc3c(c2)OCCO3)cc1`: 32.6%; `Cc1ccc2[nH]c(C)c(CCNC(=O)NC3CCCCC3)c2c1`: 7.63%. To `CCSc1nnc(NC(NC(=O)c2ccco2)(C(F)(F)F)C(F)(F)F)s1` belongs -2.49%; to `CCN(C(=O)COC(=O)CCc1c[nH]c2ccccc12)c1c(N)n(Cc2ccccc2)c(=O)[nH]c1=O`, 0.628%. Next, `O=S(=O)(c1ccc2c(c1)OCCO2)N1CCCN(S(=O)(=O)c2c(F)cccc2F)CC1`: -13.8%. In the case of `COc1ccc(-n2nnnc2SCC(=O)Nc2ccccc2N2CCOCC2)cc1OC`, the “hERG current change (%, negative = inhibition) at 10uM” value is -46.9%. For the molecule `CC(C)CNC(=O)c1cc([N+](=O)[O-])ccc1N1CCOCC1`, the “hERG current change (%, negative = inhibition) at 10uM” value is 4.47%. Next, `O=C(OCC[NH+]1CCOCC1)c1cccnc1.[Cl-]`: 1.91%; `O=C(COC(=O)C1=COCCO1)NCc1ccc(F)cc1`: 9.07%.

Consider `Cc1nn(C)c(C)c1NC(=O)Nc1ccc(Cl)c(Cl)c1`, for which the “hERG current change (%, negative = inhibition) at 10uM” value is recorded as 8.03%. `O=c1[nH]c(-[n+]2ccccc2)c(/C=N/N=C(\[O-])c2ccccc2)s1`: the “hERG current change (%, negative = inhibition) at 10uM” value was 27.4%.

For `CCSc1nnc2c(n1)[nH]c1c(C)cccc12`, the “hERG current change (%, negative = inhibition) at 10uM” value was -3.16%. To `Cc1cccc(NC(=S)N(CCCN2CCOCC2)Cc2ccco2)c1` belongs -29.9%. For the molecule `CC(C)(C)c1ccc(Cn2c(=O)cnc3ccccc32)cc1`, the “hERG current change (%, negative = inhibition) at 10uM” value is -4.85%.

Turning to `CC(C)CN1CCN(Cc2ccccc2C(F)(F)F)CC1CCO` (stereo not shown), the “hERG current change (%, negative = inhibition) at 10uM” value was 4.5%. To `O=C(Nc1ccc(F)cc1)C(Sc1nc2ccccc2[nH]1)c1ccccc1` (stereo not shown) belongs 24.2%; to `CCOc1ccc(N2C(=O)C(CC(=O)Nc3ccccc3)N(Cc3ccccn3)C2=S)cc1` (stereo not shown), -15.3%. Next, `O=C(/C=C/c1cccc([N+](=O)[O-])c1)Nc1cccc(NC(=O)c2cccs2)c1`: -11.7%.

Source of the values: PMC4336329 (PLoS ONE, 2015).
